# From PubChem BioAssay AID2675 (National Center for Advancing Translational Sciences (NCATS), 2010)
# Screen size: about 280,000 compounds; about 100 (0.036%) were called active. The shares of active, inactive and inconclusive entries below differ from those in the screen. Calls follow the shape of the dose curve; as a rule, active = well fitted inhibition curve with a large enough effect in the signal ratio, with a control signal flat (not every such curve was filed as active); inconclusive = small, poorly fitted or top-dose-only effect, or effect the other way, or a change in a side signal; inactive = no such curve, though single readings can be large or run the other way; the % refers to the signal ratio. Where the call is inconclusive, the potency comes from a doubtful curve fit. A note “side channel” means that the fit belongs to a control or component signal, not to the main read-out.
# Target: Muscleblind-like protein 1 (Homo sapiens) (UniProt Q9NR56)
# Chain of UniProt Q9NR56 (Q9NR56 whole entry, looked up): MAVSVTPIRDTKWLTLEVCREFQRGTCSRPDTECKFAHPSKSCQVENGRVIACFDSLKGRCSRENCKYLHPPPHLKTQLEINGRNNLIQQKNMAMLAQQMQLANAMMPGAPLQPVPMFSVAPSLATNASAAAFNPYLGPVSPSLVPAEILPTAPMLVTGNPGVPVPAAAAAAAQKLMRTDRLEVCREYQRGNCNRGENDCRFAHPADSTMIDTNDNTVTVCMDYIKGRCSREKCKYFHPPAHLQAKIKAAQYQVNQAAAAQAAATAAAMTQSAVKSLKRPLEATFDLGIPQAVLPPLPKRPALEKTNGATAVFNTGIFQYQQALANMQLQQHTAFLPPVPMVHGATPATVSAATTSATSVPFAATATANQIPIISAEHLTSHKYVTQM
# Assay: qHTS Assay for Inhibitors of MBNL1-poly(CUG) RNA binding
# Conditions: TR-FRET MBNL1-His/biotin-(CUG)12 binding, 665/545 ratio; activity change, negative = inhibition: at 57.5 µM (top of the series)
# Procedure, shortened: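 His-tagged MBNL1 binding to biotinylated (CUG)12 RNA was measured by TR-FRET using terbium anti-His antibody (0.055 ng/ul final) and streptavidin-XL665 (5 nM final). Compounds were titrated 92 nM to 58 uM; 60 min at room temperature.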
# % is scaled to controls: 0 for no effect and ±100 for the full control effect; potency is read from the fitted curve at half-maximal effect; tags tell the direction and shape of the fitted curve or compound fluorescence and quenching.
Structure (SMILES),Potency,"activity change, negative = inhibition"
CCn1c(O)c(N=NC(=O)Cn2ccc(C(F)(F)F)n2)c2ccccc21,"inconclusive: 3.55 µM [quencher, side channel, full curve]",–
CC1CCN(C(=O)C2CCCN(S(=O)(=O)c3cccc4nsnc34)C2)CC1 (centres undefined),"inconclusive: 25.1 µM [quencher, partial curve]",–
COc1ccc(-c2cc(C(F)(F)F)n3nc(C(=O)O)cc3n2)cc1OC,"inconclusive: 25.1 µM [quencher, side channel, partial curve]",–
O=C(NNc1ccccc1[N+](=O)[O-])Nc1ccccc1,"inconclusive: 28.2 µM [quencher, side channel, single point]",–
Cc1ccccc1NC(=O)c1snc2c(=O)[nH]cnc12,"inconclusive: 39.8 µM [quencher, side channel, single point]",–
CC1CN(c2ccc(NC(=O)c3ccco3)cc2C(=O)O)CC(C)O1 (centres undefined),–,inactive: -2.83%
Cc1ccc(NC2=C(NCCO)C(=O)c3ccccc3C2=O)cc1,"inconclusive: 11.2 µM [quencher, side channel, partial curve]",–
Cc1cc2c(C)nc(N/N=C/c3ccc([N+](=O)[O-])cc3)nc2o1,"inconclusive: 1.78 µM [quencher, side channel, full curve, poor fit]",–
O=C1C2C(C(=O)N1/N=C/c1ccc([N+](=O)[O-])o1)C1C=CC2C12CC2 (centres undefined),"inconclusive: 20 µM [quencher, side channel, partial curve]",–
O=C(/C=C/c1cccc([N+](=O)[O-])c1)OCC1CCCO1 (centres undefined),"inconclusive: 12.6 µM [quencher, partial curve]",–
O=C(Cc1ccccc1)NCC(=O)OCC(=O)c1ccc([N+](=O)[O-])cc1,"inconclusive: 14.1 µM [quencher, side channel, partial curve]",–
Cc1nc(SCC(=O)Nc2ccc3c(c2)OCCO3)nc(C)c1C,–,inactive: -1.33%
CCn1c(=N)c(C(=O)OC)cc2c(=O)n3ccccc3nc21,"inconclusive: 6.31 µM [quencher, side channel, partial curve]",–
O=C(Nc1ccccc1F)Nc1cccc2ccc(O)cc12,"inconclusive: 3.55 µM [quencher, side channel, full curve]",–
O=C(CSc1cccc[n+]1[O-])Nc1ccc([N+](=O)[O-])cc1Cl,"inconclusive: 15.8 µM [quencher, side channel, partial curve]",–
CNC(=O)COc1ccccc1C(=O)Nc1ccc2c(c1)oc1ccccc12,–,inactive: 42.2%
Cc1ccc(CNS(=O)(=O)c2ccc([N+](=O)[O-])cc2)cc1,"inconclusive: 20 µM [quencher, side channel, partial curve]",–
COc1ccc(-c2c(C)c3ccc(O)cc3oc2=O)cc1,"inconclusive: 20 µM [quencher, single point]",–
O=C1NC(=O)/C(=C/c2ccccc2Cl)N1,"inconclusive: 31.6 µM [quencher, side channel, partial curve]",–
COc1ccc(CSc2cccc3cccnc23)cc1[N+](=O)[O-],"inconclusive: 28.2 µM [quencher, side channel, partial curve]",–

Structure (SMILES),Potency,"activity change, negative = inhibition"
O=C(O)c1cccc(NC(=S)NC(NC(=O)c2cccc([N+](=O)[O-])c2)C(Cl)(Cl)Cl)c1 (centres undefined),"inconclusive: 28.2 µM [quencher, side channel, single point]",–
COc1ccccc1CNCC(O)(c1ccc(Cl)cc1)c1ccc(Cl)cc1,–,inactive: 2.05%
CCc1ccc(Nc2c([N+](=O)[O-])c(=O)oc3ccccc23)cc1,"inconclusive: 31.6 µM [quencher, side channel, partial curve]",–
COc1ccccc1CNC(=O)Cn1nnnc1CN(C)C(C)C,–,inactive: -4.92%
CCC(=O)N1CCN(c2ccc(OC)cc2[N+](=O)[O-])CC1,"inconclusive: 12.6 µM [quencher, partial curve]",–
CCN(CC)S(=O)(=O)c1ccc(-c2nnc(SCc3nnc(-c4ccc(C)cc4)o3)n2CC)cc1,–,inactive: 3.22%
O=C(O)/C=C/c1ccc(S(=O)(=O)Nc2ccccc2C(=O)Nc2ccc(F)cc2)cc1,–,inactive: 9.18%
O=C(COc1ccccc1)NC1CCS(=O)(=O)C1 (centres undefined),–,inactive: -1.71%
c1ccc(C2c3[nH]c4ccccc4c3CCN2Cc2cccn2-c2cccnc2)nc1 (centres undefined),"inconclusive: 20 µM [quencher, side channel, partial curve]",–
CC1CC(C)CN(c2ccc([N+](=O)[O-])cc2-c2nn[nH]n2)C1 (centres undefined),"inconclusive: 11.2 µM [quencher, side channel, partial curve]",–
CCN1/C(=C\c2ccc3ccccc3[n+]2CC)Sc2cc(C)ccc21,"inconclusive: 5.62 µM [quencher, side channel, partial curve]",–
NS(=O)(=O)c1ccc(N=Cc2c(O)n(-c3nccs3)c(=O)c3ccccc23)cc1,"inconclusive: 15.8 µM [quencher, side channel, partial curve]",–
COC(=O)CC1(c2cccc3ccccc23)C(=O)c2ccccc2C1=O,"inconclusive: 3.16 µM [quencher, side channel, full curve]",–
O=C(CNc1ccccc1)N/N=C/c1c[nH]c2ccccc12,–,inactive: -6.32%
CCNC(=S)N=Nc1c(O)n(Cc2ccc(Cl)cc2)c2ccccc12,–,inactive: 7.46%
CC(=O)Nc1ccc(NC(=O)c2ccccc2S(=O)(=O)c2ccc([N+](=O)[O-])cc2)cc1,"inconclusive: 7.94 µM [quencher, side channel, partial curve]",–
COc1ccccc1/C=C1\SC(=S)N(CCC(=O)N2CCN(C)CC2)C1=O,"inconclusive: 2.82 µM [quencher, side channel, full curve]",–
O=c1c2c3c(sc2nc2n1CCCCC2)CCCCC3,"inconclusive: 0.891 µM [quencher, side channel, full curve, poor fit]",–
Oc1ccc2ccccc2c1/C=N/c1nccs1,"inconclusive: 31.6 µM [quencher, side channel, single point]",–
